This is one part of the list. Many values rest on one well or one pass, so single values are uncertain.
Experiments:
Assay in all cases: cell count relative to DMSO control; melanoma cells; higher = more viable cells
Settings in all cases: library dose: low library concentration; 72 h
MZ2-MEL = tested on: MZ2-MEL
MeWo = tested on: MeWo
RPMI7951 = tested on: RPMI7951
RVH-421 = tested on: RVH-421
SkMel28 = tested on: SkMel28
SkMel30 = tested on: SkMel30
SkMel5 = tested on: SkMel5
UACC257 = tested on: UACC257
UACC62 = tested on: UACC62
SkMel2 = tested on: SkMel2
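Note: cell number obtained by counting DAPI-stained nuclei in high-throughput microscope images with image analysis software, screen run in 1,536-well plates.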

Row | SMILES | cell count (MZ2-MEL) [%] | cell count (MeWo) [%] | cell count (RPMI7951) [%] | cell count (RVH-421) [%] | cell count (SkMel28) [%] | cell count (SkMel30) [%] | cell count (SkMel5) [%] | cell count (UACC257) [%] | cell count (UACC62) [%] | cell count (SkMel2) [%]
1 | C[C@]12O[C@H](C[C@]1(O)CO)n1c3ccccc3c3c4c(c5c6ccccc6n2c5c31)CNC4=O [Lestaurtinib] + O=C(O)C(=O)Nc1sc2c(c1C(=O)O)CCNC2 [TCS401] (first compound 0.004 µM, partner dose 1.66667 µM) | 101 | 100 | 118 | 106 | 109 | 115 | 122 | 91.4 | 93 | 
2 | C[C@]12O[C@H](C[C@]1(O)CO)n1c3ccccc3c3c4c(c5c6ccccc6n2c5c31)CNC4=O [Lestaurtinib] + O=C(O)c1ccc(-c2c[nH]c3ncc(-c4ccccc4)cc23)cc1C1CCCC1 [GSK650394] (first compound 0.004 µM, partner dose 0.16 µM) | 95.4 | 82.8 | 85.6 | 112 | 93.4 | 93 | 101 | 88.6 | 90.7 | 
3 | N.N.[Cl][Pt][Cl] [cisplatin] + Cn1c(Nc2ccc(C(F)(F)F)cc2)nc2cc(Oc3ccnc(-c4ncc(C(F)(F)F)[nH]4)c3)ccc21 [CHIR265] (first compound 1.6 µM, partner dose 0.08 µM) | 94.4 | 108 | 88.8 | 93.2 | 102 | 125 |  |  | 111 | 94.3
4 | C[C@]12O[C@H](C[C@]1(O)CO)n1c3ccccc3c3c4c(c5c6ccccc6n2c5c31)CNC4=O [Lestaurtinib] + CCN(CC)CCCCNc1ncc2cc(-c3cc(OC)cc(OC)c3)c(NC(=O)NC(C)(C)C)nc2n1 [PD173074] (first compound 0.004 µM, partner dose 0.1 µM) | 103 | 106 | 103 | 97.5 | 88.5 | 89.2 | 107 | 83 | 87.7 | 
5 | C[C@]12O[C@H](C[C@]1(O)CO)n1c3ccccc3c3c4c(c5c6ccccc6n2c5c31)CNC4=O [Lestaurtinib] + O=C(Oc1ccc([N+](=O)[O-])cc1)N1CCC(C(O)(c2ccc3c(c2)OCO3)c2ccc3c(c2)OCO3)CC1 [JZL184] (first compound 0.004 µM, partner dose 1 µM) | 95.6 | 86.2 | 101 | 101 | 81.3 | 67.5 | 94.9 | 76 | 91.8 | 
6 | C[As](C)SC[C@H](NC(=O)CC[C@H](N)C(=O)O)C(=O)NCC(=O)O [Darinaparsin] + c1cc(-c2cnn3cc(-c4ccc(OCCN5CCCCC5)cc4)cnc23)ccn1 [Dorsomorphin] (first compound 0.4 µM, partner dose 0.4 µM) | 98.1 | 94.5 | 106 | 92.4 | 90.8 | 89.4 | 81.8 | 94.7 | 83.2 | 
7 | C[C@]12O[C@H](C[C@]1(O)CO)n1c3ccccc3c3c4c(c5c6ccccc6n2c5c31)CNC4=O [Lestaurtinib] + CCCCCCCCCCCC1=C(O)C(=O)C=C(O)C1=O [Embelin] (first compound 0.004 µM, partner dose 1.2 µM) | 101 | 89.9 | 107 | 115 | 109 | 105 | 98.9 | 91.4 | 120 | 
8 | C[C@]12O[C@H](C[C@]1(O)CO)n1c3ccccc3c3c4c(c5c6ccccc6n2c5c31)CNC4=O [Lestaurtinib] + Cn1cc(/C=C2\C(=O)Nc3cccnc32)c2ccccc21 [GW441756] (first compound 0.004 µM, partner dose 0.4 µM) | 100 | 99.8 | 99.4 | 104 | 93.8 | 86.7 | 96.3 | 90.3 | 101 | 
9 | C[C@]12O[C@H](C[C@]1(O)CO)n1c3ccccc3c3c4c(c5c6ccccc6n2c5c31)CNC4=O [Lestaurtinib] + COC(=O)c1sccc1S(=O)(=O)Nc1ccc(Nc2ccccc2)cc1OC [GSK0660] (first compound 0.004 µM, partner dose 1 µM) | 109 | 96.9 | 121 | 95.6 | 89.6 | 84.5 | 107 | 95.5 | 97.8 | 
10 | C[As](C)SC[C@H](NC(=O)CC[C@H](N)C(=O)O)C(=O)NCC(=O)O [Darinaparsin] + Oc1nc(-c2ccc(C(F)(F)F)cc2)nc2c1CSCC2 [XAV939] (first compound 0.4 µM, partner dose 2 µM) | 102 | 105 | 91.6 | 112 | 80.7 | 138 | 89.9 | 96 | 89.7 | 
11 | C[C@]12O[C@H](C[C@]1(O)CO)n1c3ccccc3c3c4c(c5c6ccccc6n2c5c31)CNC4=O [Lestaurtinib] + O=C(Nc1ccccc1)c1cc([N+](=O)[O-])ccc1Cl [GW9662] (first compound 0.004 µM, partner dose 2 µM) | 98.1 | 84.8 | 107 | 109 | 92.4 | 110 | 99.3 | 86.6 | 99.4 | 
12 | C[C@]12O[C@H](C[C@]1(O)CO)n1c3ccccc3c3c4c(c5c6ccccc6n2c5c31)CNC4=O [Lestaurtinib] + Nc1ncn([C@H]2C[C@H](O)[C@@H](CO)O2)c(=O)n1 [decitabine] (first compound 0.004 µM, partner dose 0.1 µM) | 82.5 | 78.5 | 83.3 | 91.8 | 98.3 | 73.9 |  |  | 76.9 | 
13 | C[C@]12O[C@H](C[C@]1(O)CO)n1c3ccccc3c3c4c(c5c6ccccc6n2c5c31)CNC4=O [Lestaurtinib] + Nc1nc(F)nc2c1ncn2[C@@H]1O[C@H](CO)[C@@H](O)[C@@H]1O [fludarabine] (first compound 0.004 µM, partner dose 0.2 µM) | 110 | 38.3 | 118 | 99.1 | 65.5 | 20.7 |  |  | 64.9 | 
14 | N.N.[Cl][Pt][Cl] [cisplatin] + CO[C@H]1C[C@@H]2CC[C@@H](C)[C@@](O)(O2)C(=O)C(=O)N2CCCC[C@H]2C(=O)O[C@H]([C@H](C)C[C@@H]2CC[C@@H](OCCO)[C@H](OC)C2)CC(=O)[C@H](C)/C=C(\C)[C@@H](O)[C@@H](OC)C(=O)[C@H](C)C[C@H](C)/C=C/C=C/C=C/1C [everolimus] (first compound 1.6 µM, partner dose 0.02 µM) | 79.1 | 73.4 | 83.5 | 78.6 | 67.8 | 61.3 |  |  | 66.1 | 
15 | C[C@]12O[C@H](C[C@]1(O)CO)n1c3ccccc3c3c4c(c5c6ccccc6n2c5c31)CNC4=O [Lestaurtinib] + Cn1cncc1[C@@](N)(c1ccc(Cl)cc1)c1ccc2c(c1)c(-c1cccc(Cl)c1)cc(=O)n2C [tipifarnib] (first compound 0.004 µM, partner dose 0.01 µM) | 93.2 | 87.9 | 98.1 | 86.5 | 82.5 | 87.3 | 105 | 64.9 | 71 | 
16 | C[As](C)SC[C@H](NC(=O)CC[C@H](N)C(=O)O)C(=O)NCC(=O)O [Darinaparsin] + COC(=O)c1sccc1S(=O)(=O)Nc1ccc(Nc2ccccc2)cc1OC [GSK0660] (first compound 0.4 µM, partner dose 1 µM) | 97.6 | 87.5 | 125 | 79.8 | 73.9 | 79 | 79.5 | 64.2 | 88.5 | 
17 | C[C@]12O[C@H](C[C@]1(O)CO)n1c3ccccc3c3c4c(c5c6ccccc6n2c5c31)CNC4=O [Lestaurtinib] + C/C(O)=C(\C#N)C(=O)Nc1cc(Br)ccc1Br [LFM-A13] (first compound 0.004 µM, partner dose 2 µM) | 103 | 78.2 | 97.5 | 99.6 | 80.4 | 84 | 105 | 105 | 88.9 | 
18 | C[C@]12O[C@H](C[C@]1(O)CO)n1c3ccccc3c3c4c(c5c6ccccc6n2c5c31)CNC4=O [Lestaurtinib] + C=CCn1c(=O)c2cnc(Nc3ccc(N4CCN(C)CC4)cc3)nc2n1-c1cccc(C(C)(C)O)n1 [MK1775] (first compound 0.004 µM, partner dose 0.02 µM) | 99.1 | 81 | 117 | 102 | 81.5 | 68 | 86.4 | 93.5 | 63.9 | 
19 | C[As](C)SC[C@H](NC(=O)CC[C@H](N)C(=O)O)C(=O)NCC(=O)O [Darinaparsin] + O=C1NC(=O)/C(=C/c2ccc(-c3ccc(F)cc3O)o2)S1 [AS252424] (first compound 0.4 µM, partner dose 1 µM) | 98.5 | 114 | 110 | 97.4 | 96.3 | 83.9 | 94.6 | 98.4 | 84.1 | 
20 | C[C@]12O[C@H](C[C@]1(O)CO)n1c3ccccc3c3c4c(c5c6ccccc6n2c5c31)CNC4=O [Lestaurtinib] + CO[C@H]1C[C@@H]2CC[C@@H](C)[C@@](O)(O2)C(=O)C(=O)N2CCCC[C@H]2C(=O)O[C@H]([C@H](C)C[C@@H]2CC[C@@H](OCCO)[C@H](OC)C2)CC(=O)[C@H](C)/C=C(\C)[C@@H](O)[C@@H](OC)C(=O)[C@H](C)C[C@H](C)/C=C/C=C/C=C/1C [everolimus] (first compound 0.004 µM, partner dose 0.02 µM) | 79.2 | 59 | 87.9 | 73.8 | 48.1 | 59.4 |  |  | 77.9 | 

Reference: the supplement of paper PMC4604168 (melanoma cell lines)
